Molecules are shown by their SMILES. Screen size: about 150,000 compounds; about 540 (0.36%) showed an effect of 50% or more. Some of the results follow.

The values that follow come from ChEMBL document CHEMBL4888484, “Replenishing the malaria drug discovery pipeline: Screening and hit evaluation of the MMV Hit Generation Library 1 (HGL1) against asexual blood stage Plasmodium falciparum ,using a nano luciferase reporter read-out” (2022).

The assay has as its system Plasmodium falciparum. Description: Primary screen in NF54 nanoGlo assay, in single point, at 2uM, 72h; a lower Z score goes with more inhibition. The note with it: timepoint 72 hour. Format: functional, Erythrocyte.
Consider `CN(CC(F)(F)F)C(=O)CNc1ncnc2ccc(F)cc12`, for which the “% Inhibition” value came out at 5% and the Z score is listed as -0.74.
In the same order, the values of `NC(=O)C1CCN(C(=O)[C@@H]2CC(c3ccc(Cl)c(Cl)c3)=NO2)CC1` are -10% and 1.39.
In the case of `Cc1cc(OCc2nc(-c3nonc3N)no2)cc(C)c1Cl`, the “% Inhibition” value is -2% and the Z score was 0.25.
The like results for `Cc1n[nH]c(C)c1CNC(=O)C(C)(C)NC(=O)C(F)(F)F` were, in that order, -7% and 0.84.
The like results for `CCCn1ccnc1CN1CC[C@](C)(O)[C@H](Cc2ccccc2)C1` were, in that order, -8% and 1.
The like results for `COCCC(=O)Nc1ccc(OC)c2nonc12` were, in that order, 5% and -0.86.
Turning to `CC12CN(CCS(C)(=O)=O)CC1(C)CN(Cc1ccccc1)C2` (stereo unspecified), the “% Inhibition” value is reported as -9% and the Z score was 1.25.
`Cn1cncc1[C@@H](O)C(=O)N1CCN(C(=O)Cc2c[nH]c3ccccc23)CC1`: the “% Inhibition” value is -4% and the Z score amounted to 0.4.
Regarding `COc1ccc(NC(=O)Cn2c(C)cc3nc4n(c(=O)c32)CCCCC4)cc1`, the “% Inhibition” value was -3% and the Z score was determined as 0.39.
In the same order, the values of `Cc1cccc(OCC(=O)N2C[C@@H]3C[C@H](N(C)C)CN3C(=O)[C@@H]2CC(C)C)c1` are -8% and 1.02.
The like results for `O=C1CN(C(=O)c2ccc(CS(=O)(=O)c3ccccc3)o2)c2ccccc2N1` were, in that order, -8% and 1.04.
With `CCc1nc(NCc2cccnc2N(C)C)ncc1C`, the “% Inhibition” value is on record as -11% and the Z score was 1.52.
In the same order, the values of `O=C(NCc1ncccc1O)[C@H]1C[C@@H]1c1ccccc1` are -14% and 1.78.
The like results for `CN(C(=O)CN1CCN([C@H]2CCOC2=O)CC1)C1CCCCC1` were, in that order, -11% and 1.09.
For the compound `Cc1cc(C(=O)CN2C(=O)NC3(CCCCCCC3)C2=O)c(C)n1CCc1ccc(F)cc1`, the “% Inhibition” value was 4% and the Z score was -0.5.
Consider `C[C@@H](c1cccs1)N(C)Cc1ccsc1`, for which the “% Inhibition” value is listed as -17% and the Z score came to 1.85.
For the compound `O=C(COc1ccc(Cl)cc1C1CCCCC1)N1CCC[C@H]1c1ccncc1`, the “% Inhibition” value is listed as -4% and the Z score is 0.43.
In the same order, the values of `CC(=O)N[C@H]1C[C@@H](c2ccc(Cn3cccn3)cc2)O[C@@H](C(C)C)C1` are -1% and 0.17.
`Cc1ccc(NC(=O)c2ccccn2)nc1`: the “% Inhibition” value is on record as -4% and the Z score came out at 0.36.
In the same order, the values of `O=C(NCCOc1ccc2c(c1)OCO2)Nc1ccncc1` are -1% and 0.15.
In the same order, the values of `CCC(C)NC(=O)C(C)Oc1ccc(Br)cc1` (stereo unspecified) are -10% and 1.27.
In the same order, the values of `Cc1oncc1S(=O)(=O)N1CCC2(CC1)C[C@H](c1ccccc1)CN(C)C2` are -4% and 0.83.
Consider `CCOC(=O)NC(C(=O)NC(C)c1ccccc1)C(C)C` (stereo unspecified), for which the “% Inhibition” value is -2% and the Z score amounted to 0.33.
Regarding `CCCCS(=O)(=O)N1CCc2[nH]cnc2C1`, the “% Inhibition” value is -1% and the Z score came out at 0.28.
In the same order, the values of `COc1ccc(NC(=O)CCCOc2ccc(C(C)=O)cc2)cc1S(=O)(=O)N1CCCCC1` are -5% and 0.56.
In the same order, the values of `Cc1noc(CO[C@H]2CCCN(C(=O)CCc3c(C)noc3C)C2)n1` are -3% and 0.36.
As to `Cc1cccc(C[C@@]2(C)CCCN2C(=O)c2cc(O)n(C)n2)c1`, the “% Inhibition” value worked out at 4% and the Z score was -0.63.
For the compound `Cc1cccc(NC(=O)c2ccc3nn(CC(=O)Nc4ccc(C)c(Cl)c4)c(=O)n3c2)c1`, the “% Inhibition” value is -15% and the Z score was 1.3.
In the same order, the values of `O=S(=O)(NCCCN1CCCC1)c1ccc(Cl)cc1` are -15% and 1.75.
The like results for `C#Cc1cccc(N(C)S(=O)(=O)c2ccc(N(C)C(C)=O)cc2)c1` were, in that order, -2% and 0.4.
For `O=C(c1ccc2nsnc2c1)N1CCN(C[C@H](O)C2CC2)CC1`, the “% Inhibition” value is -6% and the Z score came out at 0.93.
The like results for `COCc1cc(CNc2ccnc(C(F)(F)F)n2)n[nH]1` were, in that order, 0% and 0.03.
In the same order, the values of `OC1CCC(Nc2nc(NC3CCC(O)CC3)c3ccccc3n2)CC1` (stereo unspecified) are 12% and -1.96.
As for `CC(C)(C)CCN[C@H]1CC[C@@H](CO)CC1`, the “% Inhibition” value is given as -6% and the Z score is on record as 0.65.
On to `CNc1snc(C)c1C(=O)N1CC(C)OC(C)C1` (stereo unspecified), for which the “% Inhibition” value is recorded as -7% and the Z score was 0.65.
In the case of `Cc1cc([C@H](C)NC(=O)CCOC2CCOCC2)c(C)s1`, the “% Inhibition” value came out at 4% and the Z score is -0.53.
The like results for `CCn1cnnc1NC(=O)c1sccc1C1CC1` were, in that order, -12% and 1.23.
The like results for `COc1ccc(CC(=O)N2CC[C@H]3CN(S(C)(=O)=O)C[C@@]3(CO)C2)cc1` were, in that order, 4% and -0.73.
The like results for `Nc1nc(CCC(=O)NCc2cc(F)c(F)cc2F)cs1` were, in that order, 0% and -0.06.
For `CC(C)N(Cc1cnn(C)c1)C(=O)COC[C@H]1CCCO1`, the “% Inhibition” value is given as -9% and the Z score was determined as 1.63.
The like results for `Nc1nc(CCCNCc2cnc3c(-c4ccccc4)cnn3c2)cs1` were, in that order, 0% and -0.06.
The like results for `O=C(Cn1nnc2ccccc21)Nc1ccc2c(c1)CCC2` were, in that order, 6% and -0.72.
The like results for `Cc1sc(C(=O)O)cc1NC(=O)C[C@H]1CCCCO1` were, in that order, 0% and -0.05.
